Measurements: article PMC4336329 (PLoS ONE, 2015)
Screen size: about 310,000 compounds; about 14,000 (4.5%) showed an effect of 50% or more. The effect is printed as a negative number. This is one part of the list.

Each compound was assayed against human ether-à-go-go-related gene (hERG) potassium channel (human, UniProt Q12809) (assay: primary screen, population patch clamp on CHO cells stably expressing hERG).
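Further: peak tail current of the secondary pulse compared with the same well before compound.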

Sequence of human ether-à-go-go-related gene (hERG) potassium channel (Q12809 whole entry, looked up): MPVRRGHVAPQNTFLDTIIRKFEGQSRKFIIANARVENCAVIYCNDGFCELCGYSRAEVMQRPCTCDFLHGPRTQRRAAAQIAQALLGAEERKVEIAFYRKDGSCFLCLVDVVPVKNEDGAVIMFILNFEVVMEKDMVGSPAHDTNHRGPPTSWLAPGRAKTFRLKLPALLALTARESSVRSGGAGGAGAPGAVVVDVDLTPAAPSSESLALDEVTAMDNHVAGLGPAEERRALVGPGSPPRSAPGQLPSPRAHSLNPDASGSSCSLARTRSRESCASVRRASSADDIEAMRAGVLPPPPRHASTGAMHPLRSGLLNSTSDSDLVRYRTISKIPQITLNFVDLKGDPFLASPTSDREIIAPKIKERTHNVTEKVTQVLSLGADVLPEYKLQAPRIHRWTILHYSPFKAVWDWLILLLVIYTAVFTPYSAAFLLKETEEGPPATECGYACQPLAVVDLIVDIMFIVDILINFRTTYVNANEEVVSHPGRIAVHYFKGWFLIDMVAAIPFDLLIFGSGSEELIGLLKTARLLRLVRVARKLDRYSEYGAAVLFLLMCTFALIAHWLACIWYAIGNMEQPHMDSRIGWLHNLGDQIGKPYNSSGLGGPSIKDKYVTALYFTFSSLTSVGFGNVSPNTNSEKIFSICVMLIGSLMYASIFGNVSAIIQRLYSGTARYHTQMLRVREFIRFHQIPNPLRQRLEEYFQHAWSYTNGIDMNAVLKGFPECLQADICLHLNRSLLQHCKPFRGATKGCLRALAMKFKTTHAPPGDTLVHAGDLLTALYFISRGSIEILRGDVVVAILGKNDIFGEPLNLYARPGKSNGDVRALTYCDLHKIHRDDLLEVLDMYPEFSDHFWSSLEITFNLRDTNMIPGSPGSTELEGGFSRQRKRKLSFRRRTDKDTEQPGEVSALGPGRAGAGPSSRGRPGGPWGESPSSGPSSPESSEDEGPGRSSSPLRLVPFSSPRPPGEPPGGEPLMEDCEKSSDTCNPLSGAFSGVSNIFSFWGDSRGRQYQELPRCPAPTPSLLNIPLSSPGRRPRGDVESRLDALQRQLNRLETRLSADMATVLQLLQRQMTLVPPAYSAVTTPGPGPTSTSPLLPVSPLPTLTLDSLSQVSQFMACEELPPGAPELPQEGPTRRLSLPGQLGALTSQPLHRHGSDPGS

| SMILES | hERG current change (%, negative = inhibition) at 10uM [%] |
| --- | --- |
| O=C(NCC1CCCCC1)c1cccnc1Cl | 21.9 |
| O=C(COC(=O)CCc1c[nH]c2ccccc12)NCc1ccccc1 | 4.6 |
| COc1cc(-c2cc(C(=O)O)c3cc4c(cc3n2)OCCO4)cc(OC)c1OC | -32.5 |
| O=C(Nc1ccc2c(c1)OCO2)c1ccccc1SCC(=O)N1CCCC1 | 5.23 |
| O=C(O)c1cc(Cl)nc2ccccc12 | 16.1 |
| CCOC(=O)C(NC(=O)c1ccccc1)(Nc1cccc(C)n1)C(F)(F)F (stereo not drawn) | 0.965 |
| CCCc1cc(=O)[nH]c2nnc(SCC(=O)Nc3nnc(SCC)s3)n12 | 10.2 |
| Cc1cc(NC(=O)c2ccccc2[N+](=O)[O-])ccc1Br | -1.44 |
| O=C(CN1CCN(c2ccccn2)CC1)Nc1ccc(OC(F)(F)F)cc1 | -29.9 |
| O=C(Nc1ccncc1)c1ccc2ccccc2c1 | -7.01 |
| N#CN=C1CCCCCN1CC(N)=O | -2.75 |
| COc1ccccc1C(=O)Nc1cccc(S(=O)(=O)N2CCCC2)c1 | 14.7 |
| CCOC(=O)CSc1nnc(CNC(=O)c2ccco2)n1-c1ccc(F)cc1 | -12.2 |
| Cc1cccc(C)c1NC(=O)CN(C1CCCCC1)S(C)(=O)=O | 15.6 |
| Cc1ccc(C(=O)O)cc1NC(=S)NC(=O)c1ccc(COc2ccccc2)cc1 | 14 |
| CCOC(=O)C1CCCN(C(=O)c2ccc3nc(-c4cccc(OC)c4)oc3c2)C1 (stereo not drawn) | -28.6 |
| O=C(CSc1nnc(-c2ccco2)o1)NC1CC2CCC1C2 (stereo not drawn) | -2.05 |
| COC(=O)c1ccc(CSc2nc(-c3ccccc3)cs2)o1 | 15.2 |
| CCOc1ccccc1CNc1ccc(N2CCOCC2)c(C(=O)O)c1 | -22.8 |
| CC1CN(CC(=O)NC(C)c2ccccc2)CC(C)O1 (stereo not drawn) | 9.23 |
| O=C(Nc1cc(S(=O)(=O)N2CCOCC2)ccc1Cl)c1cc(=O)c2ccccc2o1 | 8.76 |
| Cc1onc(-c2ccc(Cl)cc2Cl)c1C(=O)/C=C/N(C)C | 5.11 |
| Cc1cccc(CC(=O)NCCn2c(C)cc3ccccc32)c1 | -7.64 |

| SMILES | hERG current change (%, negative = inhibition) at 10uM [%] |
| --- | --- |
| Cc1cc2ccccn2c1C(=O)c1cccc(S(=O)(=O)N2CCOCC2)c1 | -30.7 |
| Cc1ccc(NC(=S)NNC(=O)c2c(Cl)c(C)nn2C)cc1 | 23.4 |
| CC(=O)Nc1ccc(NC(=O)C(C)OC(=O)C2(c3ccc(F)cc3)CCCC2)cc1 (stereo not drawn) | 2.48 |
| O=C1CC(=O)N(CCc2ccccc2)C(=O)N1CCc1ccccc1 | 6.19 |
| CCOc1cc(/C=N/N2CCOCC2)ccc1OCc1ccc(C(=O)OC)o1 | 0.999 |
| CCCCC(=O)Nc1cccc(-c2nc3ncccc3o2)c1 | -44.6 |
| O=C(/C=C/c1ccccc1)Nc1cc(S(=O)(=O)N2CCOCC2)ccc1N1CCCC1 | -1.04 |
| COc1cccc(NC(=S)NCc2ccco2)c1 | -5.9 |
| NC(=S)N(c1ccccc1)c1ccccc1 | 11.9 |
| C[Si](C)(C)n1ccnc1 | 27.9 |
| CCCc1nc(N)c(C#N)c(N)c1C#N | 8.77 |
| O=C(/C=C/c1cccnc1)c1ccc(O)cc1 | -15.4 |
| COC(=O)COc1ccc2cc(-c3ccccc3)c(=O)oc2c1 | 5.21 |
| Cn1c(N2CCOCC2)c(C#N)c2ccccc21 | -3.19 |
| O=C(NC1CCCCC1)C(c1ccc2ncccc2c1)N(Cc1ccc2c(c1)OCO2)C(=O)c1ccc2c(c1)OCCO2 (stereo not drawn) | -12.5 |
| NC(=O)NC(=O)C(c1ccccc1)N1CCN(S(=O)(=O)c2ccc(Br)s2)CC1 (stereo not drawn) | -52.2 |
| CCOc1ccc(N(CC(=O)Nc2ccccc2Cl)S(C)(=O)=O)cc1 | 9.72 |
| CCn1c(CNc2ccc(F)cc2)nnc1SCC(=O)N1CCCc2ccccc21 | -41.6 |
| O=C(Nc1nnc(-c2cccs2)s1)c1cccc(F)c1 | 22 |
| COc1ccc(C(=O)Nc2ccc(N3CCN(C(=O)C(C)C)CC3)cc2)cc1[N+](=O)[O-] | 19.8 |
| O=C(c1ccc(F)cc1Cl)N1CCN(S(=O)(=O)c2cccs2)CC1 | -2.3 |
| CN(c1ccc(OCC(=O)Nc2ccc3[nH]c(=O)[nH]c3c2)cc1)S(=O)(=O)c1ccc(Cl)cc1 | 3.97 |
| CSCCC(NS(=O)(=O)c1ccc(Cl)cc1)C(=O)OCC(=O)N(C(C)C)C(C)C (stereo not drawn) | -11.2 |

| SMILES | hERG current change (%, negative = inhibition) at 10uM [%] |
| --- | --- |
| CCOc1ccc(S(=O)(=O)N2CCCCC2)cc1NC(=O)CC1OC(=O)c2ccccc21 (stereo not drawn) | -31.3 |
| O=C(Cc1ccc(NS(=O)(=O)c2cccc(C(F)(F)F)c2)cc1)NCCN1CCOCC1 | -11.1 |
| C=C(C)Cn1c(N2CCC(Cc3ccccc3)CC2)nc2c1c(=O)[nH]c(=O)n2C | -3.01 |
| Cc1coc2cc3oc(=O)c(CCC(=O)NCC(=O)O)c(C)c3cc12 | 23.6 |
| Cc1cccc(N(Cc2cc3ccccc3[nH]c2=O)S(C)(=O)=O)c1 | -4.02 |
| CCCC(=O)Oc1ccc(N(C(=O)CCC)S(=O)(=O)c2cccc([N+](=O)[O-])c2)cc1 | 3.87 |
| CCn1c(=O)c(C(=O)NCc2ccc(OC)cc2)c(O)c2ccccc21 | 2.22 |
| COc1ccc(N2CC(C(=O)OCC(=O)c3cccc(OC)c3)CC2=O)cc1 (stereo not drawn) | -28.1 |
| CC1(C)CC(N2CCN(c3ccccc3)CC2)=CC(=[N+]2CCCC2)C1.[I-] | -15.3 |
| CCCCN1CC[C@H]2C=CC[C@@H](C(=O)Nc3nccs3)[C@H]2C1=O | 7.92 |
| O=C(Nc1ccccc1C(=O)Nc1ccccc1)c1ccccc1F | 20.3 |
| Cc1ccccc1NCC(=O)N/N=C/c1ccc([N+](=O)[O-])cc1 | -11.7 |
| Cc1ccc2c(CN3CCN(S(=O)(=O)/C=C/c4ccccc4)CC3)cc(=O)oc2c1 | -72.4 |
| CC(C)(C)NC(=O)Cn1cnc([N+](=O)[O-])n1 | -11.4 |
| CCNC(=O)/C(C#N)=C/c1c(N2CCN(c3ccccc3)CC2)nc2c(C)cccn2c1=O | -32.6 |
| Cl.O=C(CNCc1cccs1)Nc1ccc(OC(F)(F)F)cc1 | -19.5 |
| COc1ccc(OC)c(NC(=O)c2cc3sccc3n2C)c1 | -0.279 |
| O=C1CN(S(=O)(=O)c2ccccc2C(F)(F)F)CCN1 | 29.5 |
| CCN(C(=O)CCS(=O)(=O)c1cccc2nonc12)c1ccc(F)cc1 | -18.6 |
| O=C(NN=C1CCCC1)c1cccc(Br)c1 | -2.76 |
| O=C(Nc1ccc(N2CCCC2)cc1)c1ccc(Br)o1 | -20.8 |
| Cl.Nc1nc(Nc2ccccc2)nc2ccccc12 | -18.5 |
| Cc1nc2cc(NC(=O)N3CC4(C)CC3CC(C)(C)C4)ccc2n1C (stereo not drawn) | -23.5 |

| SMILES | hERG current change (%, negative = inhibition) at 10uM [%] |
| --- | --- |
| CCOC(=O)C1CCN(C(=O)c2ccc3c(Cl)c4c(nc3c2)CCCC4)CC1 | -28.4 |
| CC1(C)Cc2c(cnn2-c2ccccc2)C(=O)/C1=N\NC(=O)c1ccccc1N | 4.99 |
| COc1ccccc1-c1nc(-c2ccc(C)nc2OC)no1 | 9.92 |
| CC(=O)Nc1ccc(-c2cc(C(=O)O)c3ccccc3n2)cc1 | 17.2 |
| CC(=Nc1ccccc1O)c1sc2ccccc2c1O | 6.81 |
| C=CCNC(=S)NNC(=O)c1ccc([N+](=O)[O-])cc1 | 14.9 |
| COc1ccc(/C(O)=C2/C(=O)C(=O)N(Cc3cccnc3)C2c2ccco2)cc1OC (stereo not drawn) | -5.78 |
| CC(=O)Oc1ccccc1N(C(C)=O)S(=O)(=O)c1ccc(C)cc1 | 15 |
| Cc1ccc2nc(-c3ccc(NC(=O)CCN4C(=O)c5ccccc5C4=O)cc3)sc2c1 | -8.05 |
| C=CCN1C(=O)C2C(C(=O)NC)C3C=CC2(O3)C1C(=O)NCc1ccc(OC)cc1 (stereo not drawn) | 0.24 |
| COn1c(=O)c(=O)n(O)c2ccccc21 | 3.06 |
| Cc1c(NCc2cccnc2)cccc1C(=O)O | 13.9 |
| O=C(CC1(O)C(=O)Nc2ccccc21)c1ccc(-n2cccc2)cc1 (stereo not drawn) | 2.85 |
| CN(CCOc1ccc(Cl)cc1)Cc1cccc(S(=O)(=O)N(C)C)c1 | -56.5 |
| CSc1nc2c(c(=O)[nH]1)C(c1cccc(Cl)c1Cl)CC(=O)N2 (stereo not drawn) | 16.7 |
| COc1ccc(-c2cc(-c3n[nH]c(=S)n3-c3ccccc3OC)[nH]n2)cc1 | 18.6 |
| C/C(=N/NC(=O)c1ccncc1)c1c[nH]c2ccccc12 | 15.4 |
| C/C(CC(=O)Nc1ccc2c(c1)OCCO2)=N\NC(=O)c1ccccc1Cl | 22.5 |
| CCOc1ccc2nc(NC(=O)c3ccc(OCC4CCCO4)cc3)sc2c1 (stereo not drawn) | -2.99 |
| CN1CCC[C@H]1c1cccnc1 | 17.5 |
| O=C(NNC(=O)c1ccc(Cl)s1)c1csc(N2CCOCC2)n1 | 0.659 |
